Experimental data taken from paper PMC4336329 (PLoS ONE, 2015).
Screen size: about 310,000 compounds; about 2,200 (0.71%) showed an effect of 50% or more. The effect is printed as a negative number. Some of the results follow.

What follows are compounds tested against human ether-à-go-go-related gene (hERG) potassium channel (human, UniProt Q12809) (assay: primary screen, population patch clamp on CHO cells stably expressing hERG).
Sequence of human ether-à-go-go-related gene (hERG) potassium channel (Q12809 whole entry, looked up): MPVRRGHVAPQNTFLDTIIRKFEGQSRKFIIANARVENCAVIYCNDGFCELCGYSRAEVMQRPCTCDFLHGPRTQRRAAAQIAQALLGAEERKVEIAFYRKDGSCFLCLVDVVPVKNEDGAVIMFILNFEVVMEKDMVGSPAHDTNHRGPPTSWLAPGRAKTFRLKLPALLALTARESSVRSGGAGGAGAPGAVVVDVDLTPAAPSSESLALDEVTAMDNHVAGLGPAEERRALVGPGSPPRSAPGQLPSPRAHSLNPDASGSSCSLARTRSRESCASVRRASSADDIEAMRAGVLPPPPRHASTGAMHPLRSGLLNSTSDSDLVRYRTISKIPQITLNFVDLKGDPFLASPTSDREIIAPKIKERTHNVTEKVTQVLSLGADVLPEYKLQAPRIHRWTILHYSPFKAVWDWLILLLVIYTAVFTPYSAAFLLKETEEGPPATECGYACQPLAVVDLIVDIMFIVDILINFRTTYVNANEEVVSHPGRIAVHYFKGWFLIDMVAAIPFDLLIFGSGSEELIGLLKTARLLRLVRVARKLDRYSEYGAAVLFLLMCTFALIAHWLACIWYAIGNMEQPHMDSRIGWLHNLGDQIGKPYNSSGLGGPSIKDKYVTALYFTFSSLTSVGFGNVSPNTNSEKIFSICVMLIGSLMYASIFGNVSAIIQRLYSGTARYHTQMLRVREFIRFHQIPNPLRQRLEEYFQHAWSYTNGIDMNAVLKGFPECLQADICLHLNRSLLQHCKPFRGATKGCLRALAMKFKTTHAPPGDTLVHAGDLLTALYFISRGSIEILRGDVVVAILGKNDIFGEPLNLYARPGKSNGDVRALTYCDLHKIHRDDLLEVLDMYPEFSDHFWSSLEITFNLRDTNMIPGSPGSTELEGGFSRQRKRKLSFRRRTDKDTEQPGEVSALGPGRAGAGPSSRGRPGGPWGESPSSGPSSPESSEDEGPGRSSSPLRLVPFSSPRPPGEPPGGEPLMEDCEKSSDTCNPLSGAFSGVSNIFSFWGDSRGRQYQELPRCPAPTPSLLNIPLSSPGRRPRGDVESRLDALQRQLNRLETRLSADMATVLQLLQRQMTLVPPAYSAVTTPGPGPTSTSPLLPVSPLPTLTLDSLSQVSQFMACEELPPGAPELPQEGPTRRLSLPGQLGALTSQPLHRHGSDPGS

| SMILES | hERG current change (%, negative = inhibition) at 1uM [%] |
| --- | --- |
| O=C(NCCC(=O)N1CCCC(C(F)(F)F)C1)c1ccc(Br)cc1 (stereo not shown) | 6.81 |
| COc1ccc(C2N(S(=O)(=O)c3ccc(C)cc3)CCN2S(=O)(=O)c2ccc(C)cc2)cc1 | -0.113 |
| Cc1cc(C)c(C)c(S(=O)(=O)NC2CCN(Cc3ccccc3)CC2)c1C.Cl | 6.53 |
| COc1ccc(CN2CCC(n3nccc3NC(=O)CCCc3ccccc3)CC2)cc1C | -67.3 |
| O=C(O)c1cccc(N2C(=O)C3CC=CCC3C2=O)c1 (stereo not shown) | -1.07 |
| Cc1cc(C)c2c(N)c3cccc(C)c3nc2n1 | -29.8 |
| CCOC(=O)N1CCN(C(=O)C2CCN(S(=O)(=O)c3cc(OC)ccc3OC)CC2)CC1 | 10.1 |
| C=CCNC(=S)N(Cc1ccccc1)Cc1ccccc1 | 7.39 |
| CCCCc1nc(SCC(=O)Nc2ccc(S(N)(=O)=O)cc2)n[nH]1 | -0.301 |
| Cc1cc(O)c(/C=N/Nc2ccc(Cl)cc2)c(=O)o1 | 11.5 |
| Cc1ccc(C(=O)c2c(NC(=O)c3ccccc3C)sc(C)c2C)cc1 | -0.94 |
| CCN(CC)CCCN=Cc1c(O)n(-c2ccccc2F)c(=O)[nH]c1=O | 17.5 |
| O=C(O)CCC(=O)Nc1ccccc1C(=O)NC1CCCCC1 | 10 |
| O=C(CNC(=O)c1cccc(Br)c1)N/N=C/c1cn[nH]c1-c1ccccc1 | 3.87 |
| COc1ccc(OC)c(C2C=C(C34CC5CC(CC(C5)C3)C4)NC(=S)N2)c1 (stereo not shown) | 3.55 |
| CS(=O)(=O)Nc1ccccc1NS(C)(=O)=O | 14.1 |
| COC(=O)c1cc(C(=O)OC)n(Cc2ccc(Cl)cc2Cl)n1 | 9.47 |
| Cl.OC(CNCc1ccccc1)COCc1ccc(Cl)cc1 (stereo not shown) | -8.21 |
| O=C(Nc1ccccc1N1CCN(c2ccccc2)CC1)C1CCCCC1 | 2.39 |
| Cc1ccc(N2C(=O)C(NC(=O)c3ccccc3F)(C(F)(F)F)C3=C2CC(C)(C)CC3=O)cc1 (stereo not shown) | 14.9 |

| SMILES | hERG current change (%, negative = inhibition) at 1uM [%] |
| --- | --- |
| COc1cc(/C=N/OCC(=O)Nc2ccc(OC(F)F)cc2)ccc1OCc1ccccc1 | 6.59 |
| COc1ccc(CCNC(=O)c2nn(C)cc2Cl)cc1 | -2.84 |
| COc1cccc(CN2CC(C(=O)NCCCc3ccc(C)cc3)CCC2=O)c1 (stereo not shown) | 5.43 |
| Cc1cc(OCCN2CCCC2)ccc1[N+](=O)[O-].O=C(O)C(=O)O | 7.94 |
| CCc1nnc(NC(=O)c2cccc(S(=O)(=O)N(C)c3ccc(OC)cc3)c2)s1 | 16.3 |
| C=CCn1cccc(C(=O)Nc2cc(OC)c(OC)c(OC)c2)c1=O | 16.3 |
| CC(=NCC1CCCO1)c1c(O)n(C2CCCCC2)c(=O)[nH]c1=O (stereo not shown) | 5.45 |
| Cc1ccc(NS(=O)(=O)c2ccc(OCC(=O)NCc3ccco3)cc2)cc1 | 10.7 |
| Cc1cc(C)c(OCCCCN2CCNCC2)c(C)c1.O=C(O)C(=O)O | 14.5 |
| O=C(Nc1ccc(N2CCCC(O)C2)cc1)c1snc2c(=O)[nH]cnc12 (stereo not shown) | 14.3 |
| CCN1CCN(c2cc(C)c3cc(NC(=S)N(CC)CC)ccc3n2)CC1 | -8.83 |
| CC(C)[C@H](NC(=O)c1ccccc1)C(=O)Nc1ccc2c(c1)OCO2 | 9.3 |
| CCCCn1c(=O)[nH]c(=O)c2c(C(=O)OCC)cc(-c3cccs3)nc21 | 4.54 |
| CSc1nc(C)c(CCO)c(=O)[nH]1 | 14 |
| Cc1ccccc1Cn1c2ccccc2c2cnn(CC(=O)NCCCN3CCOCC3)c(=O)c21 | -19 |
| CC(C)CCNC(=O)C(NS(=O)(=O)c1ccc2c(c1)c(=O)n(C)c(=O)n2C)c1ccccc1 (stereo not shown) | 11 |
| COc1ccc(Br)cc1CNC(=O)Cc1c(C(=O)O)[nH]c2ccc(Cl)cc12 | 5.01 |
| O=C(Cc1ccc(S(=O)(=O)N2CCOCC2)s1)Nc1ccc2c(c1)CCC2 | 6.72 |
| O=C(NC1CCCC1)C(=O)N(Cc1cccnc1)C(C(=O)NCc1ccco1)c1ccccc1F (stereo not shown) | -0.265 |
| Cc1sc2nc(SCC(N)=O)n(-c3ccccc3)c(=O)c2c1C | 15.8 |

| SMILES | hERG current change (%, negative = inhibition) at 1uM [%] |
| --- | --- |
| CC(C)C(=O)Nc1c(-c2ccccc2Cl)c(=O)c2ccccc2n1C | 9.62 |
| Cc1ccccc1NC(=S)NC(=O)C1CCCCC1 | 4.7 |
| O=C(CCCN1C(=O)/C(=C/c2cccs2)SC1=S)Nc1cccnc1 | 15.6 |
| COc1cccc(OCC(=O)O)c1 | 3.71 |
| COc1ccccc1-c1cc(C(=O)N2CCN(c3ccc(F)cc3)CC2)no1 | -4.87 |
| CCNc1nc(NCC)n2c(SCC(=O)NCC3CCCCC3)nnc2n1 | 12.8 |
| CC(=O)Nc1ccc2nc(SCC(=O)NCCOc3ccccc3)sc2c1 | -1.86 |
| CCOC(=O)c1nnc(-c2ccccc2)nc1Sc1c(Cl)cccc1Cl | 12.1 |
| C/C(=C\c1ccc(Br)cc1)C(=O)c1c(C)cc(C)[nH]c1=O | 17 |
| COC(=O)CSc1nnc(-c2ccncc2)n1N | 15.5 |
| CCc1ccc(OCCNC(=O)c2ccco2)cc1 | 10.8 |
| CN1CCN(c2ncccc2S(=O)(=O)N2CCCCC2)CC1 | 9.59 |
| Cc1ccc(NC(=O)N2CCCC2c2cccs2)cc1 (stereo not shown) | 11.5 |
| CCNS(=O)(=O)c1ccc(OC)c(C(=O)NC2CCCCC2)c1 | 12.1 |
| Cc1nn(CC2CC2)c(=O)n1-c1ccc(Cl)cc1 | 7.79 |
| COC(=O)Nc1ccccc1C(=O)N1CCN(c2ccc(C)cc2)CC1 | 12.7 |
| COc1cc(SC)ccc1C(=O)Nc1c(Cl)cncc1Cl | 5.57 |
| CC1=C(C(=O)Nc2ccc(C)cc2C)C(c2cccc([N+](=O)[O-])c2)n2nc(C(=O)OC(C)C)nc2N1 (stereo not shown) | 2.47 |
